# Test results as given in the supplement of paper PMC10338343.
# ± gives the standard deviation. Over roughly 3,700 sequences, “pre-steady-state target cleavage rate” has its median near 0.02; the highest 2% begin near 0.23. Only a part is listed here, and it is no random draw.
# Test system: MILI (PIWIL2) piRISC loaded with Kctd7 piRNA (26 nt)
# Test: pre-steady-state target cleavage rate (min^-1); MIWI and MILI are mouse PIWI proteins and EfPiwi is from a freshwater sponge; tags in brackets are library labels; higher = faster piRNA-guided slicing of the target
# Conditions: guide: Kctd7 piRNA 5'p-UGUUAAUCUCUCAGAGAAGGUGACAG; auxiliary factor: 500 nM mouse GTSF1
# Procedure, shortened: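 A burst-and-steady-state fit was used to obtain the pre-steady-state cleavage rate. The input data were sequencing reads of uncleaved targets, normalised to depth and to weakly complementary targets, from a […] transcribed, DNA-blocked target RNA library mixed with 1 nM active affinity-purified piRISC holding one synthetic guide, with or without 500 nM GTSF1 partner protein, in HEPES–potassium acetate buffer at 33 °C for 0–8 or 0–960 min. Three trials were pooled and k3 was capped at 0.0001 min^-1.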
# 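Further: 1 nM active piRISC with 0.1 nM target library at 33 °C single turnover.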
row,Sequence,pre-steady-state target cleavage rate
1,UAGUGACUGUGCUUCUCUGAGAGAUUAACA,0.177 ± 0.0085
2,UAGUGACAGACCUUCUCUGAGAGUAUUAACA,0.0651 ± 0.0098
3,UAGUGUGACACCUUCUCUGAGACAUUAACA,0.0419 ± 0.01
4,UAGUGACACACCAUCUCUGAGUGAUUAACA,0.00584 ± 0.0032
5,UAGUGUGUCUCCUUCUCUGAGAGAUUAAGA,0.0383 ± 0.011
6,UAGUGACAGACGCUUCUCUGAGAGAUUAACA,0.0399 ± 0.0079
7,UAGUGAGUCACCUUUCUGAGAGAUUAACA,0.0759 ± 0.019
8,UAGUGACACUCGUUCUCUGAGAGAUUAACA,0.0811 ± 0.0066
9,UAGUGAGUCUGCUUCUCUGAGAGAUUAAGA,0.0302 ± 0.0066
10,UAGUGUGUCACCUUCUCAGAGAGAUUUACA,0.219 ± 0.042
11,UAGUGACUCACCUUCUCAGAGAGAUUAUGA,0.0325 ± 0.0095
12,UAGUGACAGUCCUUCUCUCAGAGAUUAACA,0.0166 ± 0.005
13,UAGUGUGUCACCUUAUCUGAGAGAUUAACA,0.134 ± 0.014
14,UAGUGAGUCUCCUUCUCUGUGAGAUUAACA,0.0227 ± 0.0046
15,UAGUGAGUCACCUUCUCAGAGACAUUAACA,0.0969 ± 0.018
16,UAGUGAGUCACCUUCUCUGAGAGAUUAAGCA,0.211 ± 0.038
17,UAGUGUGUCACCUCUCUCUGAGAGAUUAACA,0.136 ± 0.019
18,UAGUGACAGUGCUUCUCUGAGAGAUUAAUCA,0.0116 ± 0.0034
19,UAGUGACAGACCUUCACUGAGAGAUUAAGA,0.00627 ± 0.0044
20,UAGUCUGUCACCUUCUCUGAGAGAUUAUCA,0.156 ± 0.024
21,UAGUGACAGACAUUCUCUGAGAGAUUAACA,0.0119 ± 0.0043
22,UAGUGAGUCACCUUCUCUUAGAGAUUAACA,0.0981 ± 0.01
23,UAGUGACAGUGCUUCUCAGAGAGAUUUACA,0.00413 ± 0.003
24,UAGUGACAGUGCUUCUCUGAGAGAUUAACU [g2:g19:cont:t1U],0.0175 ± 0.0056

row,Sequence,pre-steady-state target cleavage rate
1,UAGUGAUUCACCUUCUCUGAGAGAUUAACA,0.205 ± 0.016
2,UAGUGAGUCAUCUUCUCUGAGAGAUUAACA,0.225 ± 0.018
3,UAGUGUCUGACCUUCUCUGAGAGAUUAACA,0.133 ± 0.0098
4,UAGUGACUCACCUUCUGUGAGAGAUUAACA,0.149 ± 0.01
5,UAGUGACAAACCUUCUCUGAGAGAUUAACA,0.0896 ± 0.0097
6,UAGUCUGUCACCUUCUCUGAUAGAUUAACA,0.0464 ± 0.0055
7,UAGUGACACUGCUUCUCUGAGAGAUUAAGA,0.0162 ± 0.0035
8,UAGUGACAGACCUUCUCUGAGGAGAUUAACA,0.00818 ± 0.0035
9,UAGUCUGUCUCCAUCUCUGAGAGAUUAACA,0.148 ± 0.01
10,UAGUGACACACCUUCUGAGAGAGAUUAUGA,0.0134 ± 0.0078
11,UAGUCUGUCACCUUCUCUGAGAGUUAACA,0.278 ± 0.082
12,UAGUGACACACCUUCUCUGUGAGUUUAACA,0.021 ± 0.0037
13,UAGUCUGUCACCUUCUCUGAGAGAUUAGCA,0.145 ± 0.036
14,UAGUGACAGUCCAACUCUGAGAGAUUAACA,0.00509 ± 0.0013
15,UAGUGACACACCUCUCUCUGAGAGAUUAACA,0.0883 ± 0.01
16,UAGUGUGUCACCUUCUCUCAGAGAUUAACA,0.0641 ± 0.0097
17,UAGUGACAGAGCUUCUGUGAGAGAUUAACA,0.0298 ± 0.011
18,UAGUGAGUCACGCUUCUCUGAGAGAUUAACA,0.0876 ± 0.0077
19,UAGUGACAGUGCUUCUCUGAGAGAUUAUCA,0.00765 ± 0.0025
20,UAGUGACAGUCCUUACUCUGAGAGAUUAACA,0.0261 ± 0.0042
21,UAGUGACACACCUUCUCAGUGAGAUUAACA,0.0189 ± 0.0044
22,UAGUGACAGUGCUUCUCUGAGAGGUUAACA,0.0352 ± 0.0067
23,UAGUGACACACCUUCUCUGAGUGAUUAACA,0.0058 ± 0.0038
24,UAGUGACUGACCUUCUCUGAGACAUUAACA,0.0245 ± 0.0067

row,Sequence,pre-steady-state target cleavage rate
1,UAGUCUGUCACCAACUCUGAGAGAUUAUGA,0.014 ± 0.0039
2,UAGUCUGUCACCUUCUGUGAGACAUUAACA,0.0532 ± 0.0092
3,UAGUGACUGACCUUCUCUGUGAGAUUAACA,0.0475 ± 0.0061
4,UAGUGACUCUCCUUCUCUGAGAGUUUAACA,0.0271 ± 0.0097
5,UAGUGACUCACCUUCCCUGAGAGAUUAACA,0.124 ± 0.023
6,UAGUGACUCACCAUCUCUGAGACAUUAACA,0.035 ± 0.0075
7,UAGUGUGUCUCCUUCUCUGAGAGAAUAACA,0.0308 ± 0.011
8,UAGUGAGUCACCUUCUCAGAGAGAUUAAGA,0.047 ± 0.017
9,UAGUGACAGUGCUGUCUCUGAGAGAUUAACA,0.0194 ± 0.0047
10,UAGUGAGUCACCUUCUCUGUGAGAUUAAGA,0.0266 ± 0.011
11,UAGUGACACACCUUCUCUGAGAUAUUAACA,0.0707 ± 0.013
12,UAGUGUGUCACCUUCUCUGAGAGUAUUAACA,0.202 ± 0.03
13,UAGUGACACCACCUUCUCUGAGAGAUUAACA,0.184 ± 0.017
14,UAGUGACUCACCUACUCUGAGAGAUUAACA,0.123 ± 0.0086
15,UAGUGACUCAACUUCUCUGAGAGAUUAACA,0.0726 ± 0.01
16,UAGUGUGUCACCUUCUCUGACAGUUUAACA,0.0538 ± 0.02
17,UAGUGACAGUCCUUCUCUGAGACGAUUAACA,0.00422 ± 0.0035
18,UAGUCUCUCACCUUCACUGAGAGAUUAACA,0.0146 ± 0.0043
19,UAGUGACAGACCUUCUCUGAGAGAUUUUCA,0.00831 ± 0.0055
20,UAGUGACAGUCGUUCUCAGAGAGAUUAACA,0.00684 ± 0.0031
21,UAGUGACAGUCCUUCUCUGAGAGUUUAACA,0.0141 ± 0.0042
22,UAGUGAGUCACGUUCUCUCAGAGAUUAACA,0.0377 ± 0.0065
23,UAGUCUGUCACCUUCUCAGAGAGAUUAAGA,0.076 ± 0.025
24,UAGUCUGUCACCAUGUCUGAGAGAUUAACA,0.0939 ± 0.0075
